Drawing on PMC10726135, this text covers binding signal (log2 normalized intensity) for 72 sequences.

The list shows a part of the results. At the low end of the ranking the order means little. Measured with an extract: partners may take part in the binding.

The test has as its target T1, HNF4alpha2 (COS-7 nuclear extract) (UniProt P41235).
T1 sequence: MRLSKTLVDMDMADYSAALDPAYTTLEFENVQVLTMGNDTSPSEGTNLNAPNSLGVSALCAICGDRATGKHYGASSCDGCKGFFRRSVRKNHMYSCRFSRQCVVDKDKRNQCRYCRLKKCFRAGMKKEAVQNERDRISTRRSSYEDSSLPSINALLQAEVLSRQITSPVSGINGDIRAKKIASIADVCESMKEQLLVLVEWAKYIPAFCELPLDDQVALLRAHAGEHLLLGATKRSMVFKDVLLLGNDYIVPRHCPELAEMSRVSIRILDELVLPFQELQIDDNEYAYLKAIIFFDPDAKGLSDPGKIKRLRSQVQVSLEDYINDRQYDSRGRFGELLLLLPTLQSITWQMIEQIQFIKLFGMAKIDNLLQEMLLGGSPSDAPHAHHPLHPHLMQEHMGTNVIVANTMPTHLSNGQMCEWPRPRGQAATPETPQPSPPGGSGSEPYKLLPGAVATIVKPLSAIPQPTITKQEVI
Kind of test: protein-binding microarray. The conditions noted are these: COS-7 nuclear extract on double-stranded Agilent 4x180k PBM; binding buffer, salt, pH and temperature not given; high values mean tight binding; double strand, one strand shown; sequences stand for … in …GCCTAGGGAGATTAGAGTATCGGTCGA
For the sequence TATCTGGTTCAAAGGTCATTTCTGCTTGCA, the binding signal (log2 normalized intensity) came out at 5.75.
In the case of TCAAGGGTGTTCCTGAGTAAATCTCACATT, the binding signal (log2 normalized intensity) is 0.762.
Turning to ACAAGCGTCGCTGAGTGGAGGCCCAGTAAG, the binding signal (log2 normalized intensity) is -1.07.
With AGGCAGCATGGAATGACTTTGGGGAAATGA the figure was -1.31.
As for GATGAAGCAATAGGAATCACACAACTTTCA, the binding signal (log2 normalized intensity) is -1.12.
On to CCGTTAGCCAATATTTGCAAGGCTGTTGGC, for which the binding signal (log2 normalized intensity) is -1.09.
Consider AGCTGGACTTTGAACTTCATGTGTGGTGCA, for which the binding signal (log2 normalized intensity) was found to be 6.21.
As to GCAGAGGCCTGATGGTGAGTTCTGTCCTTT, the binding signal (log2 normalized intensity) came to 2.23.
Turning to CTTGGCTGTGCTGCCCTTTGCCCTTTGGGA, the binding signal (log2 normalized intensity) came to 7.11.
To CTGAAGACAAAGCACAATCAAAGCAATGGC belongs -1.15; to CTCTTCAGAATGGCCTGCCCATCCCCCCAA, 5.18; to TCATATGGACTATGTTTACACAGCCTTGTA, 0.636.
To TCCTCCAAAACCCAGTTCATAGGTCAATTC belongs 4.02; to TGGAGCAATTCAACAACTGTGCATTCTGAA, -0.663; to GGAATGTGCAAACGGCCCAGGGTTAGAGGA, -0.596.
With GTGACCTTCGATCACCTCAAGAAAGAGGTG the figure was 1.94; with CTGGACTCAAGGAATCCTCCTAAGTAGCCA, -1.15.
Turning to TATTTGACCTTCGGCCTCAATTATAACTCA, the binding signal (log2 normalized intensity) turned out to be 4.69.
Turning to TTGAATTCCTGGAAATCCCGAAATAGAGCC, the binding signal (log2 normalized intensity) was -1.13.
For the sequence GCCTGTGCTAAGTTTCAAAGAGGAGGCAGA, the binding signal (log2 normalized intensity) was -1.1.
As to CACTTGGTGGACATGGTTCACTGATTACTG, the binding signal (log2 normalized intensity) was 1.03.
With CTGGTAAAGCACTTTGCCCCCAAGAAAAGG the figure was 3.49; with TTATCTCAGATGAGACTTTGGACTTTTGAA, 7.12; with AATAACAAAGGGCACCCTTGATGTGTATTT, 0.501.
With ATCAGGAAGGTCAGAAAGCAGAAGTTCTAG, the binding signal (log2 normalized intensity) is -1.15.
To GAACTGCAAGGCTAGAGATTCTCCCTGGGG belongs -1.17.
On to AGGAATCTGTTGAGAACTGGAGCAAAGGTC, for which the binding signal (log2 normalized intensity) stood at 4.91.
As to TGTCCCACATTAACTGTGCTTCTGGGGTAT, the binding signal (log2 normalized intensity) amounted to 0.697.
Turning to AACCCTTGAGCTCTGCACAGCACAAGATAA, the binding signal (log2 normalized intensity) was -1.13.
In the case of GTACCCCACAGGTATTCTTTCATCCCTCTC, the binding signal (log2 normalized intensity) came to 1.47.
In the case of AAGCCGAAAGAGGGTGAAAGTACAGTGATG, the binding signal (log2 normalized intensity) came to 0.96.
As for CCCATCCCAGAGGTCAAACTATCTGAGGTG, the binding signal (log2 normalized intensity) was found to be 0.966.
To GGGCTGAGGATGAGGACTTTGGTCTTATTA belongs 3.74.
In the case of GTCTTTGCTTTTTGAAAAGCTGTAGTGAAC, the binding signal (log2 normalized intensity) was determined as 1.31.
Consider CTCCAAGATAAAGGGTCAGATTGTAGCCTC, for which the binding signal (log2 normalized intensity) came out at 0.89.
Consider GGCAGCCAGTGAGTGCAGCAGTGTACTTGA, for which the binding signal (log2 normalized intensity) worked out at 0.693.
CTGCCAAAGCTCACAGATGTGGAATGAAAC: the binding signal (log2 normalized intensity) is -0.0699.
For the sequence ACCATCCACGGATGCATGATTGCTCTCTAC, the binding signal (log2 normalized intensity) is -0.932.
With AGTATCCCATCCATTTCCCATCCCCAGAGC the figure was 3.83; with CAGCAGACAATGGGAGACATTCCTTCAGCG, -0.979.
Consider CCTTTTCTATCCAGATGATCTTTACCCTGG, for which the binding signal (log2 normalized intensity) stood at 3.89.
With ATCAAAGCAGTATCATCAACATGCACTAGC the figure was -1.12.
For AGTCCGGGGGCCAGTTCACTCAGTCCACAT, the binding signal (log2 normalized intensity) was 2.12.
For CCTGACCTTTGGATTCCCAGATGGAGTGCT, the binding signal (log2 normalized intensity) turned out to be 3.37.
Turning to CAGTAGATAACCTCAAAGAGCATGGCGCCA, the binding signal (log2 normalized intensity) is -1.14.
Take ACTCATGCTTTCTTATCTGGGGGCCATTCC: the binding signal (log2 normalized intensity) was 1.43.
Turning to ACTTAGTCCAGGTTTAGCAAGAATACTGCT, the binding signal (log2 normalized intensity) was -1.15.
To CTTAACATGGTTTGCAAGACCTCTGAGAAC belongs 0.656; to AACTCCTATGTGAATCTAATGCCACCATTG, -0.453.
With GAGATAAGGGGGTCAGTTCAAAAGACTCAT the figure was -0.901.
Take TTGTCCTTCACTTGTAGGAGACCTTGAGGA: the binding signal (log2 normalized intensity) was 1.34.
ATTTTATGGGAAAACAGAATGGTCTGTATT: the binding signal (log2 normalized intensity) worked out at 1.33.
To TTCCCGAGTGCCTTTAGAGGGCAAGGATCA belongs 2.77; to GAGGGATCAGGTCTTTCCTGTCCCAAGGGG, -0.723.
As for TGTTCTCTTTATTTATTAACTGGAGATAAC, the binding signal (log2 normalized intensity) turned out to be 0.571.
On to GACCAGCGTGTGGCGCCATTTCAGGTCCAC, for which the binding signal (log2 normalized intensity) amounted to 1.39.
Turning to CTTTCCTGGGCCTTAAAGCATGACAAAATA, the binding signal (log2 normalized intensity) worked out at 0.784.
Take TCTGCTGGGCCTTCAGCTTGAAAACACAAC: the binding signal (log2 normalized intensity) was -1.17.
With ACTCGGAGGACTGAGCCCGCTCCACTCCGG the figure was -1.13; with TTCCACAAACACAGATCAGATATGAGATTC, -1.14; with ACTTCCAAAGCCCCTTTCCACTCTACCGTC, 1.54.
In the case of CCGCCCACCCTTTTTTTTCTTTCTTTTCCC, the binding signal (log2 normalized intensity) stood at 1.54.
Consider GGTGAAATAGCTGAACTATTTAAGGCCTTT, for which the binding signal (log2 normalized intensity) worked out at 0.822.
For the sequence CACATTCCATTCTCACTGACTCACGGCAGC, the binding signal (log2 normalized intensity) is -1.21.
To TTGCATCTCCTCCTCCCATTCCAGCTCTTT belongs 1.33; to GAAACATGACACCCATCATGAGTAGGTTTA, -0.164; to GGCTGCTTCACACAAACATCACCTACCTGA, -1.14.
For the sequence CCTTTGTGTTTATGGCAAATTGATATCCTG, the binding signal (log2 normalized intensity) is 1.8.
Regarding TACCAAGGAGTGGACTGTTCAAGACCAAAG, the binding signal (log2 normalized intensity) was -1.06.
For the sequence CTGCATGAAAGTTCTCTGGGCTTTTTGATC, the binding signal (log2 normalized intensity) was 1.51.
On to TTCTTAACAAGCTGAGCACCAGAAACCTGC, for which the binding signal (log2 normalized intensity) is -1.07.
In the case of GATCTGGGTTTGACCGTTCTCTCCGGGTAA, the binding signal (log2 normalized intensity) was 1.25.
